# Source: the supplement of paper PMC12217912
# This is one part of the list. The full chains were built here from the parent and the listed change. Values near 0.05 are background.
# B1: TEV protease; numbered along this chain (parent)
# chain: MGESLFKGPRDYNPISSSICHLTNESDGHTTSLYGIGFGPFIITNKHLFRRNNGTLVVQSLHGVFKVKDTTTLQQHLVDGRDMIIIRMPKDFPPFPQKLKFREPQREERICLVTTNFQTKSMSSMVSDTSCTFPSGDGIFWKHWIQTKDGQCGSPLVSTRDGFIVGIHSASNFTNTNNYFTSVPKNFMELLTNQEAQQWVSGWRLNADSVLWGGHKVFMVKPEEPFQPVKEATQL
# Variants of: B1
# Assay: raw area under fraction-flipped curve 0-4 h after induction (AUC4h, not background-subtracted), DNA-recorder readout of cleavage of the substrate (dimensionless); higher = more cleavage of the substrate by the protease variant
# Conditions: temperature: 34 °C; time window: 0-4 h after rhamnose induction
# Method: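 In vivo DNA recorder in E. coli TOP10(DE3) ΔrhaA at 34 °C. Each TEVp single-site mutant (parent TEVp 0) is paired with a single-site variant of the 7-mer TEVs (canonical ENLYFQ|S). The substrate sits between flexible linkers in a Bxb1-sfGFP-TEVs-SsrA fusion, so cleavage stabilises Bxb1 and speeds flipping of a recombination array, read by NGS. The value is the raw area under the fraction-flipped curve over 0-4 h after rhamnose induction (AUC4h), with ≥20 reads per time point. It is not background-subtracted; inactive controls average about 0.047.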
# 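Note: Bxb1 expression induced with 0.2% (w/v) L-rhamnose at OD600 near 0.5, cultures sampled hourly, flipped fraction per protease–substrate barcode pair counted by paired-end Illumina sequencing.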
Variant,area with substrate ENCYFQS,area with substrate ENDYFQS,area with substrate ENEYFQS,area with substrate ENKYFQS,area with substrate ENMYFQS,area with substrate ENNYFQS,area with substrate ENPYFQS,area with substrate ENQYFQS,area with substrate ENRYFQS,area with substrate ENSYFQS,area with substrate ENTYFQS,area with substrate ENVYFQS,area with substrate ENGYFQS,area with substrate ENYYFQS,area with substrate ENFYFQS,area with substrate ENIYFQS,area with substrate ENWYFQS,area with substrate ENHYFQS
MGESLFKGPRDYNPISSYICHLTNESDGHTTSLYGIGFGPFIITNKHLFRRNNGTLVVQSLHGVFKVKDTTTLQQHLVDGRDMIIIRMPKDFPPFPQKLKFREPQREERICLVTTNFQTKSMSSMVSDTSCTFPSGDGIFWKHWIQTKDGQCGSPLVSTRDGFIVGIHSASNFTNTNNYFTSVPKNFMELLTNQEAQQWVSGWRLNADSVLWGGHKVFMVKPEEPFQPVKEATQL [S18Y],0.0629,0.0405,0.0519,0.0449,0.0668,0.0558,0.0565,0.0587,0.0641,0.0636,0.0778,0.0713,,,,,,
MGESLFKGPRDYNPISSSICHLTNESDGHTTSLYGIGFGPFIITNKHLFRRMNGTLVVQSLHGVFKVKDTTTLQQHLVDGRDMIIIRMPKDFPPFPQKLKFREPQREERICLVTTNFQTKSMSSMVSDTSCTFPSGDGIFWKHWIQTKDGQCGSPLVSTRDGFIVGIHSASNFTNTNNYFTSVPKNFMELLTNQEAQQWVSGWRLNADSVLWGGHKVFMVKPEEPFQPVKEATQL [N52M],0.0687,0.0503,,,,,,,,,,0.0717,0.0783,0.0568,,,,
MGESLFKGPRDYNPISSSICKLTNESDGHTTSLYGIGFGPFIITNKHLFRRNNGTLVVQSLHGVFKVKDTTTLQQHLVDGRDMIIIRMPKDFPPFPQKLKFREPQREERICLVTTNFQTKSMSSMVSDTSCTFPSGDGIFWKHWIQTKDGQCGSPLVSTRDGFIVGIHSASNFTNTNNYFTSVPKNFMELLTNQEAQQWVSGWRLNADSVLWGGHKVFMVKPEEPFQPVKEATQL [H21K],0.0653,0.0668,0.0632,0.0554,,,0.0554,0.0602,,,0.0666,0.069,0.0606,,0.0562,0.0778,0.0493,
MGESLFAGPRDYNPISSSICHLTNESDGHTTSLYGIGFGPFIITNKHLFRRNNGTLVVQSLHGVFKVKDTTTLQQHLVDGRDMIIIRMPKDFPPFPQKLKFREPQREERICLVTTNFQTKSMSSMVSDTSCTFPSGDGIFWKHWIQTKDGQCGSPLVSTRDGFIVGIHSASNFTNTNNYFTSVPKNFMELLTNQEAQQWVSGWRLNADSVLWGGHKVFMVKPEEPFQPVKEATQL [K7A],0.0697,0.0695,0.0645,,0.0511,,0.0545,0.068,,0.0517,0.0657,,0.106,0.0751,,,,
MGESLFKGPRDYNPISSSICHLQNESDGHTTSLYGIGFGPFIITNKHLFRRNNGTLVVQSLHGVFKVKDTTTLQQHLVDGRDMIIIRMPKDFPPFPQKLKFREPQREERICLVTTNFQTKSMSSMVSDTSCTFPSGDGIFWKHWIQTKDGQCGSPLVSTRDGFIVGIHSASNFTNTNNYFTSVPKNFMELLTNQEAQQWVSGWRLNADSVLWGGHKVFMVKPEEPFQPVKEATQL [T23Q],0.0632,0.0653,0.0635,0.0589,0.0885,0.0478,0.066,0.0639,,0.0698,0.0595,0.0405,0.0531,,0.0703,0.0795,0.0373,0.0687
MGESLFKGPIDYNPISSSICHLTNESDGHTTSLYGIGFGPFIITNKHLFRRNNGTLVVQSLHGVFKVKDTTTLQQHLVDGRDMIIIRMPKDFPPFPQKLKFREPQREERICLVTTNFQTKSMSSMVSDTSCTFPSGDGIFWKHWIQTKDGQCGSPLVSTRDGFIVGIHSASNFTNTNNYFTSVPKNFMELLTNQEAQQWVSGWRLNADSVLWGGHKVFMVKPEEPFQPVKEATQL [R10I],0.0674,,0.0709,,,0.111,,0.0588,,0.0692,0.0682,,,0.0586,,0.116,,0.0509
MGESLFKGPRDYNPISSSICHLTNESDGHTTSLYGIGFGPFIITSKHLFRRNNGTLVVQSLHGVFKVKDTTTLQQHLVDGRDMIIIRMPKDFPPFPQKLKFREPQREERICLVTTNFQTKSMSSMVSDTSCTFPSGDGIFWKHWIQTKDGQCGSPLVSTRDGFIVGIHSASNFTNTNNYFTSVPKNFMELLTNQEAQQWVSGWRLNADSVLWGGHKVFMVKPEEPFQPVKEATQL [N45S],0.053,,0.0652,0.0564,,0.0651,0.0567,0.0563,0.0724,0.0587,0.0551,0.0588,0.0736,0.0624,0.046,,0.0531,0.057
MGESLFKGPRDYNPISSSICHLTNESDGHTTSLYGIGFGPFIITQKHLFRRNNGTLVVQSLHGVFKVKDTTTLQQHLVDGRDMIIIRMPKDFPPFPQKLKFREPQREERICLVTTNFQTKSMSSMVSDTSCTFPSGDGIFWKHWIQTKDGQCGSPLVSTRDGFIVGIHSASNFTNTNNYFTSVPKNFMELLTNQEAQQWVSGWRLNADSVLWGGHKVFMVKPEEPFQPVKEATQL [N45Q],0.0598,0.0605,,0.06,0.101,0.0621,0.0656,0.0699,,0.0596,,0.052,,,0.0743,0.0571,,0.0444
MGESLFKGPRDYNPISSSICHLTNESDGHTTSLYGIGFGPFIITDKHLFRRNNGTLVVQSLHGVFKVKDTTTLQQHLVDGRDMIIIRMPKDFPPFPQKLKFREPQREERICLVTTNFQTKSMSSMVSDTSCTFPSGDGIFWKHWIQTKDGQCGSPLVSTRDGFIVGIHSASNFTNTNNYFTSVPKNFMELLTNQEAQQWVSGWRLNADSVLWGGHKVFMVKPEEPFQPVKEATQL [N45D],0.0655,0.0597,0.0613,0.0564,0.0578,0.0506,0.0591,0.0596,0.0532,0.0681,0.0512,0.059,0.0538,0.0581,0.0638,,0.0129,0.0564
